Data taken from paper PMC6919601, “Identification of Plasmodium dipeptidyl aminopeptidase allosteric inhibitors by high throughput screening” (PLoS ONE, 2019).
Hit rate of the full screen: of about 110,000 compounds, about 230 (0.21%) showed an effect of 50% or more. The list shows a part of the results.

Target: DPAP1 (Plasmodium falciparum, UniProt Q8IIJ9)
Test: primary screen, percent inhibition; read by cleavage of a fluorogenic dipeptide substrate; higher = more effect of the substance
Design: species or system P. falciparum D10 trophozoite lysates; single well
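Also: 30 min substrate incubation versus DMSO and 10 µM JCP410 controls.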

Chain of DPAP1 (Q8IIJ9 whole entry, looked up): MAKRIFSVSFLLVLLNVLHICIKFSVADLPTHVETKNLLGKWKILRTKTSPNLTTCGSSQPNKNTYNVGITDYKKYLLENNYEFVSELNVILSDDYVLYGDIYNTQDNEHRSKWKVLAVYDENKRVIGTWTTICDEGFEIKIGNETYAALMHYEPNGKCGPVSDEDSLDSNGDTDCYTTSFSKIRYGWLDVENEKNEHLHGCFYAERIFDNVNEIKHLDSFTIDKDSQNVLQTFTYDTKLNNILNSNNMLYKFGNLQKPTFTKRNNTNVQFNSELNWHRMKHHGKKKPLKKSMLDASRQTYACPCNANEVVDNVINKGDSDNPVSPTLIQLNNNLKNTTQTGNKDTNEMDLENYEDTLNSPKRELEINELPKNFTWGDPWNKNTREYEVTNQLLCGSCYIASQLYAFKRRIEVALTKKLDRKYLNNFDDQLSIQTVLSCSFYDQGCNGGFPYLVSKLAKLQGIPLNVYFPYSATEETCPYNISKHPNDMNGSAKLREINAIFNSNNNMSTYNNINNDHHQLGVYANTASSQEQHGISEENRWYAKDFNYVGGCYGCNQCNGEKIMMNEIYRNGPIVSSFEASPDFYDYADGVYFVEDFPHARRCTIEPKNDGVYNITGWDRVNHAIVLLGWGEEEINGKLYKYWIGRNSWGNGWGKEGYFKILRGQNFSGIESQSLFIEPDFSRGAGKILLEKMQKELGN

Compound | % Inhibition @ 10 uM
Cc1cccc(-n2ncc3c(N4CCC5(CC4)OCCO5)ncnc32)c1 | 5.69%
NC(=O)c1nn(-c2ccccc2)nc1NC(=O)CSc1nc(O)c2c3c(sc2n1)CCCC3 | 18.2%
CN(Cc1ccccc1)C(=O)CN(c1ccccc1Cl)S(=O)(=O)c1ccccc1 | 0.964%
Fc1cccc(C2Nc3cccc4cccc(c34)N2)c1 | -7.27%
O=C(c1ccc2c(Cl)c3c(nc2c1)CCCC3)N1CCN(Cc2ccc3c(c2)OCO3)CC1 | -3.99%
Cc1cc(C)c(S(=O)(=O)Nc2cc(Cl)ccc2Cl)c(C)c1 | 0.135%
O=C(NCc1cccc(Cl)c1)c1nc(O)c2nnn(CC3CCCO3)c2n1 (stereo not shown) | -1.11%
COCCNC(=O)/C(C#N)=C/c1c(Oc2ccc(C)cc2)nc2ccccn2c1=O | -1.86%
COc1ccccc1-c1nc(S)c2c(n1)Oc1ccccc1C2 | 0.383%
CN(C)/C=C1/C(=O)NC(=O)N(c2ccccc2)C1=O | 2.09%
O=C(c1ccc(CSc2nc3ccncc3[nH]2)cc1)N1CCN(C2CCCCC2)CC1 | -5.19%
COc1ccc(C)cc1-n1cnc2sc(C)c(C)c2c1=O | -8.46%
O=C(c1cc(F)c(F)cc1Cl)N1CCN(c2ccc([N+](=O)[O-])c3cccnc23)CC1 | -2.97%
O=S1(=O)N=C(NCCCCO)c2ccccc21 | 0.758%
CSc1nc(=O)c2c(n1C)NC(=O)CC2c1ccc(F)cc1F (stereo not shown) | 0.596%
Cc1[nH]c2ccc(F)cc2c1CCNC(=S)NCc1ccccc1 | -3.94%
CCOC(=O)c1noc2ncnc(N3CCCN(Cc4ccccc4Cl)C3)c12 | 4.48%
c1ccc(CN2CCC(NC3CCCCCCC3)CC2)cc1 | -1.81%
O=C(O)CCC(=O)NCc1ccc(C(=O)O)cc1 | 0.00784%
CCCCc1nc(N)c(C#N)c(-c2cccc(Br)c2)c1CCC | 1.88%
CCCCCCCn1nc(C)c(C(=O)c2ccccc2)c1C | -7.42%
CC1=C(C(=O)Nc2ccc(Br)cc2)C(c2ccc([N+](=O)[O-])cc2)NC(S)=N1 (stereo not shown) | -2.91%
COc1ccccc1CNC(=O)c1ccc(CSc2nc3ccncc3[nH]2)cc1 | -5.43%
CC1=C(C(=O)Nc2ccccc2C)C(c2ccncc2)n2nc(CCCO)nc2N1 (stereo not shown) | -1.04%
COc1ccc(CC(=O)Nc2cccc(C(F)(F)F)c2)cc1 | 4.6%

Compound | % Inhibition @ 10 uM
O=C(CSc1n[nH]c2ncnn12)NCCc1ccccc1 | -4.23%
CC(C)C(=O)Nc1ccc2oc(-c3ccccc3F)nc2c1 | 6.79%
CCCCCCCCCC(=O)NC(C)C(=O)O (stereo not shown) | 5.54%
Cn1c(=O)[nH]c(=O)c2c1nc1n2CCC(=O)N1Cc1ccccc1 | -10.2%
Cc1cc(-c2ccccc2)c(C#N)c(=O)n1C(=O)c1ccccc1F | -4.43%
Oc1c2c3ccccc3nc-2c2cccc3c2n1CC3 | -3.04%
CC1(C)CC(n2nc(O)c3c2NC(=O)CSC3c2ccc(OCc3ccccc3)cc2)CCO1 (stereo not shown) | 1.25%
Cc1nnc(N2CCC(C(=O)NCc3ccccn3)CC2)c2nn(-c3ccccc3)c(C)c12 | 1.97%
O=C1c2cccnc2C(=O)N1c1cccc(-c2nc3ccccc3o2)c1 | -1.28%
CCC1(CC)C(=O)N=C(Nc2ccc(OC)cc2)NC1=O | 1.66%
COc1ccc(CNC(=O)c2cc3c(s2)CS(=O)C3)cc1 (stereo not shown) | -3.94%
COc1ccc(C(=O)/N=c2\sc(C)c(-c3ccccc3)n2C)cc1OC | -3.25%
Cc1ccc(OCC(O)CN2CCOCC2)c(C)c1 (stereo not shown) | 5.39%
Cc1c[n+]([O-])n(-c2ccc(C(=O)O)cc2)n1 | 1.3%
COc1cccc(NC(=O)CN(c2ccc(OC)c(Cl)c2)S(C)(=O)=O)c1 | 1.52%
CN1/C(=C\C(=O)c2ccco2)C(C)(C)c2ccccc21 | 3.53%
CC1(C)Cc2ccccc2C(NC(Cc2ccccc2)C(=O)O)=N1 (stereo not shown) | 0.331%
CCN(C(=O)c1ccco1)c1ccccc1C | 3.09%
CNC(=O)OCc1cccc(COC(=O)NC)n1 | -3.06%
CCOC(=O)C1=C(CN2CCN(Cc3ccccc3)CC2)NC(=O)NC1c1ccccc1 (stereo not shown) | -1.3%
COc1cc(C(=O)Nc2ccccc2Br)cc(OC)c1OC | -6.39%
COc1cc(CN2CCN(Cc3ccc(C)cc3)CC2)cc2c1OCO2 | 3.5%
CC1CN(Cc2ccc(Br)s2)CC(C)O1 (stereo not shown) | 0.215%
COc1ccc(C(=O)N2CCC(C(=O)O)CC2)cc1 | -3.74%
Cc1cc2ccccc2c(=O)n1CC(=O)NC1CCCCCC1 | 3.54%

Compound | % Inhibition @ 10 uM
CCOC(=O)N1CCN(C(=O)C(C)N(c2ccc(OCC)cc2)S(C)(=O)=O)CC1 (stereo not shown) | 2.44%
Cc1ccc(-c2nc(CS(=O)(=O)CC(=O)NC3CCCc4ccccc43)c(C)o2)cc1 (stereo not shown) | -3.7%
Cc1cc(C)cc(C(=O)NCCn2c(C)cc3ccccc32)c1 | 0.205%
COc1cc(CNCc2cccnc2)ccc1OCc1ccccc1 | -0.62%
N#CC(C#N)NC(=O)[C@H](CS(=O)(=O)Cc1ccccc1)NC(=O)N1CCOCC1 | -0.214%
Cc1nn(CCC(=O)N2CCN(c3ccccn3)CC2)c(=O)c2nn(-c3ccccc3)c(C)c12 | -7.13%
CC(NC(=O)c1ccncc1)C(c1cccs1)N1CCN(C)CC1 (stereo not shown) | 0.66%
CC(C)CC(NC(=O)OCc1ccccc1)C(=O)NC(CCc1ccccc1)C(=O)C1=NCC(c2ccccc2)O1 (stereo not shown) | -7.36%
Cc1cc(C)c2c(n1)sc1c(C)c3c(nc12)CCC3 | 3.72%
COc1ccccc1NC(=O)C1CCCC1 | -2.34%
CCC(=O)Nc1cc2nc(O)cc(C)c2cc1C | 0.777%
COc1ccc(S(=O)(=O)Nc2ccc(OC)c(Cl)c2)cc1C | 2.95%
COc1ccc(C2CC3=NC(C)=C(C#N)C(c4ccc(Cl)c(Cl)c4)C3=C(O)C2)cc1 (stereo not shown) | -0.436%
Cc1ccc2oc(=O)c(-c3nc(-c4ccncc4)no3)cc2c1 | -3.13%
c1ccc(-c2ccc(Oc3nc(-c4ccccc4)cc(-c4ccccc4)n3)cc2)cc1 | 0.247%
CCCCNC(=O)N1CCN(Cc2ccccc2)CC1 | 0.528%
Cc1ccc(C(O)(COc2ccc(F)cc2)c2ccc(C)cc2)cc1 | 2.51%
O=C1C(Cl)=C(NCCc2ccccc2)C(=O)N1Cc1ccccc1 | -3.9%
CC1(C)CC(=O)C(/C=N/CCN2CCN(C3OC(=O)c4ccccc43)CC2)=C(O)C1 (stereo not shown) | -1.92%
CC(NC(=O)/C(=C/c1ccco1)NC(=O)c1cccc(Br)c1)C(=O)O (stereo not shown) | -6.36%
CCN(CC)S(=O)(=O)N1CCC(C(=O)NCCCOC)CC1 | 2.79%
CC1=C(C#N)C(C(F)(F)F)(C(F)(F)F)NC(C2CCCCC2)=N1 | -3.33%
CCc1ccc(C2C(C#N)=C(C)N=C3CC(C)(C)CC(O)=C32)cc1 (stereo not shown) | 1.4%
CCn1c(C)c(C)c2cc(C(=O)NCCc3ccccc3C)ccc21 | -7.04%
Cn1c(=O)c2c(ncn2CC(=O)NCCN2CCOCC2)n(C)c1=O | 1.26%

Compound | % Inhibition @ 10 uM
FC(F)(F)c1cc(-c2ccco2)nc(-n2cnc3ccccc32)n1 | -3.12%
COC(=O)c1nc2n(n1)C(c1ccccc1Cl)C1=C(O)CCCC1=N2 (stereo not shown) | -1.62%
COC(=O)c1ccc2nc(NC(=O)CSc3nc4ccccc4o3)sc2c1 | -6.41%
O=c1c(Cl)nc(Cl)c(-c2ccccc2)n1Cc1ccccc1 | 1.43%
O=C(Nc1ccccc1)Nc1nc(-c2ccc(F)cc2)cs1 | -1.61%
O=C(NCCN1CCOCC1)c1cc(Sc2ccccc2C(F)(F)F)nc2ccccc12 | 6.32%
CCN1CCN(CCCNC(=O)c2cc3c(C)nc4ccccc4c3o2)CC1 | -1.7%
O=C(Cc1ccc(Cl)cc1)Nc1nonc1-c1ccccc1 | 44.7%
CC(Oc1cccc(NC(=O)c2cccs2)c1)C(=O)c1ccccc1 (stereo not shown) | -0.884%
COC(=O)C(NC(=O)c1ccccc1Br)C(C)C (stereo not shown) | -4.43%
COC(=O)c1cn(C(=O)c2cccs2)c2ccccc12 | 2.56%
CC(C(=O)NCc1ccc2c(c1)OCO2)n1ccc2cc(S(=O)(=O)N3CCCCCC3)ccc21 (stereo not shown) | 7.52%
CCCc1[nH]nc2c1C(c1ccc(O)c(OCC)c1)C(C#N)=C(N)O2 (stereo not shown) | -2.8%
CCC(Sc1nc2nnc(C)c-2c(N)n1-c1ccccc1Cl)C(=O)N1CCOCC1 (stereo not shown) | 2.6%
COc1ccc(NC2=C(Cl)C(=O)N(c3ccc(C)cc3)C2=O)c(OC)c1 | 0.385%
O=C(O)CCCC(=O)N1CCN(C(c2ccccc2)c2ccccc2)CC1 | -1.28%
COc1cc(CN2CCN(CCO)CC2)cc(Br)c1O | 1.83%
CCc1ccc(CNC(=O)c2cc3c(Cl)ccc4c3n2CCO4)cc1 | -2.74%
O=C(NCc1ccccc1)N1CCN(C(c2ccc(F)cc2)c2ccc(F)cc2)CC1 | -2.85%
CCOC(=O)c1c(C)c(-c2ccccc2)n(CC(=O)N2CCN(c3ccccn3)CC2)c1C | 4.69%
COc1cccc(Cn2c(=O)n(Cc3ccc(F)cc3)c(=O)c3cccnc32)c1 | -9.16%
CC(CCC(=O)O)C1CC[C@H]2C3CCC4CC(=O)CCC4(C)[C@H]3CC(=O)C12C (stereo partly shown) | 0.884%
COC(=O)C(O)(c1ccc(O)cc1O)C(F)(F)F (stereo not shown) | -2.66%
COc1cc(C(=O)N(C(C)C)C(C)C)cc(OC)c1OC | -4.5%
Cc1c(CCC#N)c(NCCCN(C)C)n2c(nc3ccccc32)c1C#N | -1.33%
